{"source": "the RNAGym collection of RNA variant scans (doi:10.7554/elife.90254)", "parents": {"B1": {"name": "LINE1-mini (parent)", "chain": "GGCAGAGCUCAACACAGCGUGGCAAAGUGGCUGUGGCUAGACUGCC"}}, "note": "Read counts are not given, so values of variants with three or more changes are uncertain."}
{"variants_of": "B1", "test": "self-cleavage, relative activity (ratio to wild type); higher = more cleavage; in vitro, sequencing; the parent is a self-cleaving ribozyme"}
{"variant": "G5C A6G G27A U34A U38C G40U G44U", "self-cleavage": 0.02}
{"variant": "G5A G21U C31A", "self-cleavage": 0.08}
{"variant": "G5A C13U C37A", "self-cleavage": 0.74}
{"variant": "G5A C13U G21A G35U C42U", "self-cleavage": 0.14}
{"variant": "G5A C18U U38C", "self-cleavage": 0.07}
{"variant": "G5A C23U C42G", "self-cleavage": 0.05}
{"variant": "G5C A12G A14G A41U", "self-cleavage": 0.02}
{"variant": "G5C A11C U43C", "self-cleavage": 0.02}
{"variant": "G5C A14G A41C C46A", "self-cleavage": 0.38}
{"variant": "G5A G27A G29A G30A", "self-cleavage": 0.12}
{"variant": "G5A G35C G36A U43A", "self-cleavage": 0.07}
{"variant": "G5A G19U C45U", "self-cleavage": 0.07}
{"variant": "G5A G21A A41U", "self-cleavage": 0.11}
{"variant": "G5A U34G C46U", "self-cleavage": 0.05}
{"variant": "G5A C31G U32C G35U U43G", "self-cleavage": 0}
{"variant": "G5A U20A U34A A41U", "self-cleavage": 0.4}
{"variant": "G5A C18G G33C U34C", "self-cleavage": 0.04}
{"variant": "G5C A6G A16C C42G", "self-cleavage": 0.06}
{"variant": "G5C A12U A16G A24C U32C", "self-cleavage": 0.02}
{"variant": "G5C A11C G17A G44U", "self-cleavage": 0.01}
{"variant": "G5A G19U A25U C45U", "self-cleavage": 0.13}
{"variant": "G5A G30C U34A", "self-cleavage": 0.04}
{"variant": "G5A C31U U34A G35A", "self-cleavage": 0.04}
{"variant": "G5A C13U G35A U38A", "self-cleavage": 0.07}
{"variant": "G5A G7U G29C", "self-cleavage": 0.05}
{"variant": "G5A C18A C31A", "self-cleavage": 0.06}
{"variant": "G5C A16G C23A G27C U28C G30A", "self-cleavage": 0.04}
{"variant": "G5A G17A G33C C45G", "self-cleavage": 0.01}
{"variant": "G5A C10U G33A", "self-cleavage": 0.03}
{"variant": "G5A U32A U43C", "self-cleavage": 0.01}
{"variant": "G5A G17U G30A", "self-cleavage": 0.04}
{"variant": "G5C A6G G17C C18U G40U", "self-cleavage": 0.01}
{"variant": "G5A U9G A41G", "self-cleavage": 0.08}
{"variant": "G5C A12G C23U G29A U34A", "self-cleavage": 0.01}
{"variant": "G5A U9G C37U", "self-cleavage": 0.59}
{"variant": "G5A G19C U34G", "self-cleavage": 0.04}
{"variant": "G5C A6G C10A G29U", "self-cleavage": 0.03}
{"variant": "G5A C18A A39C C46G", "self-cleavage": 0.02}
{"variant": "G5A G19U G22U G29U G40C A41C", "self-cleavage": 0.04}
{"variant": "G5A G7U G17U C23U G27A U28A", "self-cleavage": 0.15}
{"variant": "G5A C13U A26G U38C", "self-cleavage": 0.07}
{"variant": "G5C A14G G44C", "self-cleavage": 0.09}
{"variant": "G5A C18U G35U C42A", "self-cleavage": 0.04}
{"variant": "G5A G17A G21A A24U A41G C46U", "self-cleavage": 0.11}
{"variant": "G5A G21U G35U", "self-cleavage": 0.17}
{"variant": "G5A C18U G36A C37G", "self-cleavage": 0.15}
{"variant": "G5A G7A G40C", "self-cleavage": 0.1}
{"variant": "G5A G27A C37U", "self-cleavage": 0.48}
{"variant": "G5A C10U G27U G30C", "self-cleavage": 0.03}
{"variant": "G5C A11U G33U", "self-cleavage": 0.07}
{"variant": "G5C A6C U20G G21U C46A", "self-cleavage": 0.04}
{"variant": "G5A G7C C8A C23A", "self-cleavage": 0.54}
{"variant": "G5C A6U G7A C10U C18A G29A G30A U38A", "self-cleavage": 0.04}
{"variant": "G5A C18U C31U G33U", "self-cleavage": 0.03}
{"variant": "G5A C15A C23G G36C", "self-cleavage": 0.02}
{"variant": "G5A C18A C23U C46G", "self-cleavage": 0.03}
{"variant": "G5A U32C A41U", "self-cleavage": 0.07}
{"variant": "G5A G21C C37A U43A", "self-cleavage": 0.04}
{"variant": "G5A C10U A11U C18U", "self-cleavage": 0.02}
{"variant": "G5A C23G C31A U43C", "self-cleavage": 0.05}
{"variant": "G5A C23G G27U", "self-cleavage": 0.12}
{"variant": "G5A C18G A24C G30C G36A", "self-cleavage": 0.06}
{"variant": "G5A C15A A26U U28C", "self-cleavage": 0.01}
{"variant": "G5C A6C G17A", "self-cleavage": 0.02}
{"variant": "G5A C13G G22A G35A C45U", "self-cleavage": 0.35}
{"variant": "G5A G22A G44U", "self-cleavage": 0.08}
{"variant": "G5A U34G G40U", "self-cleavage": 0.08}
{"variant": "G5A C15U A26U", "self-cleavage": 0.06}
{"variant": "G5A U32A U34A", "self-cleavage": 0.11}
{"variant": "G5A U9A A25C", "self-cleavage": 0.09}
{"variant": "G5A C13U U38A C45A", "self-cleavage": 0}
{"variant": "G5C A6U A14G C23A G27U", "self-cleavage": 0.22}
{"variant": "G5A G22U A24U", "self-cleavage": 0.14}
{"variant": "G5A U28C G40U", "self-cleavage": 0.02}
{"variant": "G5C A16C G19A A39U", "self-cleavage": 0.02}
{"variant": "G5A G7A C45G", "self-cleavage": 0.22}
{"variant": "G5A C13G U28G G33C A41C", "self-cleavage": 0.08}
{"variant": "G5C A11U G30U", "self-cleavage": 0.05}
{"variant": "G5A G27A U34C", "self-cleavage": 0.08}
{"variant": "G5A U20C A25C", "self-cleavage": 0.04}
{"variant": "G5A G19A G27A", "self-cleavage": 0.08}
{"variant": "G5A G36U C42U", "self-cleavage": 0.02}
{"variant": "G5A U9A C18G C46A", "self-cleavage": 0.1}
